AMY RBA data for one substance are collected here from patent US20090036364A1.

The target in the assay is amylin receptor (rat nucleus accumbens membranes) (rat). The experiment in a line: displacement of 125I-amylin on rat nucleus accumbens membranes.

“hAmylin(1-7)-11,18Arg-sCT(8-27)-Amylin(33-37) (sequence not shown) (peptide; modification not given)” displayed an AMY RBA of 0.03.
